Test results from PubChem BioAssay (Tox21).
Several values for one entry are separate records, joined by “and”; a condition that tells them apart may be missing. Identical values can stand only once. This list was built around the results that the source calls inconclusive (neither active nor inactive); the mix of calls is not that of the screen. Where the call is inconclusive, the potency comes from a doubtful curve fit. Activity calls are given as the source filed them. Unless noted, calls follow the shape of the dose curve; as a rule, active = well fitted curve in the direction sought with a large enough effect in the repeat runs; inconclusive = weak or mixed curves; inactive = no such curve, though single readings can be large; an effect the other way counts as inactive or inconclusive.

Tested on: not listed separately
Assay: qHTS assay to identify small molecule antagonists of the estrogen receptor alpha (ER-alpha) signaling pathway using the BG1 cell line (AID 743080; calls by dose curve;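 also: BG1 cells stimulated with 17beta-estradiol alongside compound; nearly all actives have a fitted effect of over 25% in size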)
Details: BG1Luc4E2 ERE-luciferase antagonist mode, luminescence; activity change, negative = inhibition: at 70.3 µM (top of the series) unless noted
Outline: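 Luciferase inhibition measured with ONE-Glo after 30 min at RT in BG1Luc4E2 cells given test compounds and 17beta-estradiol for 21.5 h at 37 C; CellTiter-Fluor viability read in the same wells beforehand.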
% is scaled to controls: 0 for no effect and ±100 for the full control effect; potency is read from the fitted curve at half-maximal effect; tags tell the direction and shape of the fitted curve.

SMILES	Potency	activity change, negative = inhibition
CC(O)C#CC(C)O (stereo not drawn)	inconclusive: 67.9 µM [rising, partial curve, poor fit]	
O=C1C=CC(=O)N1	inconclusive: 70.4 µM [falling, single point]	
CN(C)c1ccc(N=Nc2ccccc2C(=O)O)cc1		inactive: 4.61%
CCCCCCCCCCCCOC(=O)c1ccc(O)cc1	inconclusive: 69.1 µM [falling, single point]	
CC1(C)CCC(C)(C)c2cc(C(=O)Nc3ccc(C(=O)O)cc3)ccc21	active: 0.0043 µM	
CN1CCN(C2Cc3ccccc3Sc3ccc(Cl)cc32)CC1 (stereo not drawn)		inactive: -2.16%
CCCC(=O)OC[C@@H](OC(=O)CCC)[C@@H](OC(=O)CCC)[C@H](Cn1c2nc(=O)[nH]c(=O)c-2nc2cc(C)c(C)cc21)OC(=O)CCC	active: 29.8 µM	
C=C[C@](C)(O)CC[C@@H]1[C@@]2(C)CCCC(C)(C)[C@@H]2CC[C@@]1(C)O	inconclusive: 68.6 µM	
COC1=C(OC)C(=O)C(CCCCCCCCCCO)=C(C)C1=O		inconclusive: -19.6%
CC(C)(O)c1ccccc1CC[C@@H](SCC1(CC(=O)O)CC1)c1cccc(/C=C/c2ccc3ccc(Cl)cc3n2)c1	inconclusive: 11.9 µM [rising, full curve]	
CC(C)(C)c1cc(O)c(C(C)(C)C)cc1O	inconclusive: 43.3 µM [falling, partial curve]	
C=C(C)C(=O)OCC(O)COc1ccc(C(C)(C)c2ccc(OCC(O)COC(=O)C(=C)C)cc2)cc1 (stereo not drawn)	inconclusive: 54.5 µM [falling, partial curve]	
CCc1oc2ccccc2c1C(=O)c1cc(I)c(O)c(I)c1		inconclusive: -27.8%
O=C1NCCN1CCN1CCC(c2cn(-c3ccc(F)cc3)c3ccc(Cl)cc23)CC1	active: 29.8 µM	

Tested on: not listed separately
Assay: qHTS assay to identify small molecule antagonists of the estrogen receptor alpha (ER-alpha) signaling pathway using the BG1 cell line - cell viability counter screen (AID 743081);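 also: compound given together with 17beta-estradiol as the ER stimulus; nearly all actives have a fitted effect of over 45% in size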
Details: BG1Luc4E2 viability, CellTiter-Fluor, 22 h; activity change, negative = cytotoxicity: at 70.3 µM (top of the series) unless noted

SMILES	Potency	activity change, negative = cytotoxicity
CCCCCCCCCCCCCC[N+](C)(C)C	inconclusive: 52.7 µM [cytotoxic, partial curve, poor fit]	
O=C1C=CC(=O)N1	inconclusive: 62.8 µM [cytotoxic, partial curve, poor fit]	
CN(C)c1ccc(N=Nc2ccccc2C(=O)O)cc1	inconclusive: 68.6 µM [cytotoxic, single point]	
CCN(CC)c1ccc(C(=C2C=CC(=[N+](CC)CC)C=C2)c2ccc(S(=O)(=O)O)cc2S(=O)(=O)[O-])cc1	active: 30.6 µM	
c1cnc2c(c1)ccc1cccnc12	active: 15.5 µM and inconclusive: 17.2 µM [cytotoxic, partial curve] and inconclusive: 24.3 µM [cytotoxic, full curve]	
N=C1C=CC(=C(c2ccc(N)cc2)c2ccc(N)cc2)C=C1	active: 13.7 µM	
C=CC(=O)OCCOCC(CC)(COCCOC(=O)C=C)COCCOC(=O)C=C	inconclusive: 7.14 µM [cytotoxic, full curve]	
CCCC(=O)OC[C@@H](OC(=O)CCC)[C@@H](OC(=O)CCC)[C@H](Cn1c2nc(=O)[nH]c(=O)c-2nc2cc(C)c(C)cc21)OC(=O)CCC	inconclusive: 18.8 µM [rising, partial curve, poor fit]	
CC(=O)OC(OC(C)=O)c1ccc([N+](=O)[O-])o1	inconclusive: 69.8 µM [cytotoxic, single point]	
N#CSc1ccc(N)c([N+](=O)[O-])c1	active: 54.8 µM	
CN(C)c1ccc2nc3ccc(=[N+](C)C)cc-3sc2c1	active: 18.8 µM and active: 23.4 µM and active: 54.5 µM	
COC(=O)C1=C(C)NC(C)=C(C(=O)OCCN(C)Cc2ccccc2)C1c1cccc([N+](=O)[O-])c1 (stereo not drawn)	inconclusive: 33.5 µM [cytotoxic, single point] and active: 54.2 µM	
CC(O)COc1ccccc1 (stereo not drawn)	inconclusive: 5.31 µM [rising, partial curve]	
C=C(C)C(=O)OCC(O)COc1ccc(C(C)(C)c2ccc(OCC(O)COC(=O)C(=C)C)cc2)cc1 (stereo not drawn)	inconclusive: 61.1 µM [cytotoxic]	
CCc1oc2ccccc2c1C(=O)c1cc(I)c(O)c(I)c1		inactive: -10.5%
O=C1NCCN1CCN1CCC(c2cn(-c3ccc(F)cc3)c3ccc(Cl)cc23)CC1	inconclusive: 29.8 µM [cytotoxic, partial curve, poor fit]	

Molecular target: Aromatase (Homo sapiens) (UniProt P11511)
Sequence of UniProt P11511 (P11511 whole entry, looked up): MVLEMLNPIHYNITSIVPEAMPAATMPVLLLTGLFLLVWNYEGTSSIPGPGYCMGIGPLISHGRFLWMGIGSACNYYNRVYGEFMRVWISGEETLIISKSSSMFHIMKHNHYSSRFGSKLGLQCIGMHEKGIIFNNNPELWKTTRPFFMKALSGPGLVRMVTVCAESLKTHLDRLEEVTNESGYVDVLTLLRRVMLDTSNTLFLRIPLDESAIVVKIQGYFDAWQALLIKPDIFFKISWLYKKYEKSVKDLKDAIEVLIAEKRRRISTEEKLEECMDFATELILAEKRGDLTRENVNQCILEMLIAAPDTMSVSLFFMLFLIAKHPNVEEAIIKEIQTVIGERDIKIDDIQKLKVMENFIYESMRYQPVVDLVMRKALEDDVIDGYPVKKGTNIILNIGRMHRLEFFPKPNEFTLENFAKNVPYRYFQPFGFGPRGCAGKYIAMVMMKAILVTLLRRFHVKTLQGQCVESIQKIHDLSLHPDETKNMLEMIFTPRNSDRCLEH
Assay: qHTS assay to identify aromatase inhibitors (AID 743083); also: nearly all actives have a fitted effect of over 55% in size
Details: MCF-7 aro ERE, testosterone-driven ERE luciferase, 24 h; activity, negative = inhibition: at 70.3 µM (top of the series)

SMILES	Potency	activity, negative = inhibition
CCCCCCCCCCCCCC[N+](C)(C)C	active: 10.6 µM and active: 23.5 µM and active: 15.3 µM	
CC(O)C#CC(C)O (stereo not drawn)	inconclusive: 67.9 µM [inhibitor, single point]	
CCN(CC)c1ccc(C(=C2C=CC(=[N+](CC)CC)C=C2)c2ccc(S(=O)(=O)O)cc2S(=O)(=O)[O-])cc1	active: 9.69 µM	
O=C(O)CCCCCCCCCCC(=O)O	inactive	
C[Si](C)(C)Cl		inactive: 5.9%
CCCOC(C)=O		inactive: -3.46%
CCc1oc2ccccc2c1C(=O)c1cc(I)c(O)c(I)c1	inconclusive: 33.5 µM [inhibitor]	
O=C1NCCN1CCN1CCC(c2cn(-c3ccc(F)cc3)c3ccc(Cl)cc23)CC1	inconclusive: 33.5 µM [inhibitor] and inconclusive: 23.7 µM [inhibitor, partial curve]	
